# Results published in PMC4336329 (PLoS ONE, 2015).
# The campaign covered roughly 310,000 compounds. About 14,000 (4.5%) showed an effect of 50% or more. Effects have a minus sign here. This is one part of the list. Where a SMILES comes first, the peptide text is derived from it. The star is where a group is joined. Cbz = O=C(OCc1ccccc1)*
# Biological target: human ether-à-go-go-related gene (hERG) potassium channel (human, UniProt Q12809)
# Assay: primary screen, population patch clamp on CHO cells stably expressing hERG
# 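Further: peak tail current of the secondary pulse compared with the same well before compound.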
# human ether-à-go-go-related gene (hERG) potassium channel, sequence (Q12809 whole entry, looked up): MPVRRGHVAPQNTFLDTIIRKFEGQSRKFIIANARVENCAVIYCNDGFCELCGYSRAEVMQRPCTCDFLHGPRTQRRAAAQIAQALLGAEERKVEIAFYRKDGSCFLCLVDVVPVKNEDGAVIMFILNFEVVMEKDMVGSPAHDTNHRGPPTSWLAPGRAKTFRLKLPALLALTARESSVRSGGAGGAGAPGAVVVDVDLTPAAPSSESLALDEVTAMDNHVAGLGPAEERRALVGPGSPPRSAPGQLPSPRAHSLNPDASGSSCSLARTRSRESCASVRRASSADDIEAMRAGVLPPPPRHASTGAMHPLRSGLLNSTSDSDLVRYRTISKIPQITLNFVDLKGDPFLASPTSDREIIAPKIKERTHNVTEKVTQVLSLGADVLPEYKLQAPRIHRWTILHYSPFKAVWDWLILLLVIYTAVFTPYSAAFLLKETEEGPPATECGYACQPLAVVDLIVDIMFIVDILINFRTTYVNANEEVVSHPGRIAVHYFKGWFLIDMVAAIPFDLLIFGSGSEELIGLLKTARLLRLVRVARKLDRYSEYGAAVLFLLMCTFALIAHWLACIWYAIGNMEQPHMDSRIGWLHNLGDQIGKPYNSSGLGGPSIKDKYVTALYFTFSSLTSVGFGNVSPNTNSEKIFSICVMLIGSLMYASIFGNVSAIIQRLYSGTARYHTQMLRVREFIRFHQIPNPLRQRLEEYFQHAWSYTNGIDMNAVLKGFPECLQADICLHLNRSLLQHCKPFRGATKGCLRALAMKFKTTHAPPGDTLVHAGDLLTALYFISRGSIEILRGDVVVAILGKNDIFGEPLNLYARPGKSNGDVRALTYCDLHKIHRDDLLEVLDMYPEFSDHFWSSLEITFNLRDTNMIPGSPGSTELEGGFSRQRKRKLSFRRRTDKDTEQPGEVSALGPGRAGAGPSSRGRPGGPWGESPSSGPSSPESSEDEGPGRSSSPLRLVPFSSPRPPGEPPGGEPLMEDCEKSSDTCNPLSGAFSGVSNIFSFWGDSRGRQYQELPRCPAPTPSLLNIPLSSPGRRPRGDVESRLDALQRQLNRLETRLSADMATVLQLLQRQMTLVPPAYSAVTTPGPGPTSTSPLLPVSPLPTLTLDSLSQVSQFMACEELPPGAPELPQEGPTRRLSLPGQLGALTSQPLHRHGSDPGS
row,Compound,"hERG current change (%, negative = inhibition) at 10uM [%]"
1,COC(=O)c1ccc(/C=N\N2CCN(c3ccccc3)CC2)cc1,27.8
2,CCOc1cc2c(cc1OCC)-n1cccc1C(c1ccc(F)cc1)NC2.Cl (stereo not drawn),0.0384
3,COc1ccccc1C(=O)NC(=O)CSc1nnc(SC)s1,1.36
4,COc1cccc(COC(=O)C2CCN(C(=O)c3ccc(F)cc3)CC2)c1OC,5.09
5,FC(F)(F)c1n[nH]c(=S)n1/N=C/c1ccco1,5.55
6,CN(CCC#N)C(=O)CSc1ncnc2sc(-c3ccccc3)cc12,-28.6
7,COc1cccc(C(=O)COC(=O)c2ccc(NC(C)=O)cc2)c1,7.01
8,CCS(=O)(=O)Nc1cc(-c2nc3cccnc3s2)ccc1C,5.66
9,S=c1[nH]nc(CN2CCCC2)n1Cc1ccccc1,-8.32
10,CC(=O)c1c(C)[nH]c(C(=O)CN2C(=O)NC(C)(c3ccc(C)cc3)C2=O)c1C (stereo not drawn),20.8
11,CCOC(=O)C1(CCOc2ccccc2)CCN(S(=O)(=O)N(C)C)CC1,-1.79
12,O=C(CCN1C(=O)c2ccccc2S1(=O)=O)N1CCN(c2ccc(F)cc2)CC1,-61.9
13,O=C(NCCCn1ccnc1)c1ccc(N2CCCCC2)c([N+](=O)[O-])c1,-71.7
14,CCOc1ccc([C@@H]2CC=C(C(=O)O)[C@H](c3cccc(Cl)c3)N2S(=O)(=O)c2ccc(C)cc2)cc1,3.82
15,CC(C)CN(C(=O)CC1OC(=O)c2ccccc21)c1c(N)n(Cc2ccccc2)c(=O)[nH]c1=O (stereo not drawn),-8.49
16,CCCOc1ccc(NC(=O)CC2C(=O)N(CC)C(=S)N2CCNC(C)=O)cc1 (stereo not drawn),-11.5
17,CN(C)/C=C1\SC(=S)N(c2ccc(F)cc2)C1=O,4.89
18,Cc1ncsc1CCC(=O)N1CCCC(C(=O)c2ccc3c(c2)OCO3)C1 (stereo not drawn),-19.2
19,CN1CCN(C(=O)c2ccc3c(c2)N(Cc2cccc(Cl)c2)C(=O)c2ccccc2S3(=O)=O)CC1,10.8
20,N#Cc1ccc(OCC(=O)Nc2ccc3[nH]c(=O)[nH]c3c2)cc1,-4.57
21,Cc1ccc(-c2cc(C(=O)NC3CCCCC3)no2)cc1,28.1
22,CCCCc1c(O)nc2sc3cc(OC)ccc3n2c1=O,12.8

row,Compound,"hERG current change (%, negative = inhibition) at 10uM [%]"
1,CCOc1ccc(C(C)=O)cc1CSc1nnc(-c2ccoc2C)n1N,-3.47
2,CN(C)S(=O)(=O)Oc1ccsc1C(=O)Nc1ccc(C(F)(F)F)cc1,-9.43
3,COc1ccc(CNc2nc(-c3cccnc3)nn2S(C)(=O)=O)cc1,-7.9
4,CCCCOC(=O)c1ccc(NC(=O)c2ccoc2C)cc1,9.42
5,COc1ccc(CC2=C(O)c3ccccc3C(=O)C2=O)cc1,15.7
6,Cc1nn(Cc2ccccc2)c(C)c1NC(=O)CSc1nc(C2CC2)nc2c1cnn2-c1ccccc1,8.84
7,CC(C)(C)c1ccc(-n2ncc3c2CCCC3NC(=O)CCN2CCCCC2=O)cc1 (stereo not drawn),-2.8
8,CNC(=S)N/N=C/c1ccc(-c2cc([N+](=O)[O-])ccc2Cl)o1,20.5
9,CCOC(=O)/C(=C/c1ccccc1)NC(=O)c1ccco1,-7.55
10,Cc1ccc(S(=O)(=O)NC(=O)c2cc(C)n(-c3cc(S(=O)(=O)N4CCOCC4)ccc3N3CCCC3)c2C)cc1,-11.2
11,Cc1ccc(NCCC(=O)c2cccs2)cc1Cl,10.2
12,CCOC(=O)Cn1c(C)nc2ccccc21,-21.4
13,COc1ccc(S(=O)(=O)N(C)C)cc1NC(=O)CCCSc1ccccc1,-21.4
14,O=C1/C(=C/c2cccs2)CCC1C1CCCC1 (stereo not drawn),-9.54
15,CCOc1ccc(-c2c[n+]3c(n2-c2ccccc2)CCCCC3)cc1.[Br-],-64.7
16,O=C(Nc1cc(-c2nc3ncccc3o2)ccc1Cl)c1ccc([N+](=O)[O-])o1,-42.3
17,Cc1ccc(N=C2SCCCN2C(=O)C2=COCCO2)cc1Cl,12.8
18,O=C(Nc1ccc2c(c1)OCO2)N1CCN(S(=O)(=O)c2ccc(Cl)cc2)CC1,-5.2
19,CCCN1CCC(N2CCN(c3cccc(C(F)(F)F)c3)CC2)CC1,-75.3
20,Cc1sc2ncn(CC(=O)NCCCC(=O)N3CCN(c4ccccc4)CC3)c(=O)c2c1C,-24.6
21,O=C(CSCC(=O)OCC(=O)c1ccc(Br)cc1)Nc1cccc2ccccc12,-5.49
22,CC(C)/C=C1\CC/C(=C\c2ccc(N(C)C)cc2)C1=O,3.4

row,Compound,"hERG current change (%, negative = inhibition) at 10uM [%]"
1,O=C(Nc1nc2c(s1)CCc1ccccc1-2)c1ccco1,-45.3
2,COc1cccc(-n2c(C)nn(CCOc3ccccc3)c2=O)c1,8.58
3,COc1cc(C2NC(=O)c3ccccc3O2)ccc1OC(C)C (stereo not drawn),18.9
4,Cc1cccc2cc(C#N)c(NCCNC(=S)NCCCN3CCOCC3)nc12,-36.3
5,COc1ccc(OCC(=O)NNC(=S)NC(=O)c2ccc(Br)o2)cc1,17.1
6,CC(=O)c1cccc(CN2CCCC(C(=O)c3ccc4c(c3)OCO4)C2)c1 (stereo not drawn),-64.9
7,Nc1ccc(C(=O)N/N=C\C=C\c2ccc([N+](=O)[O-])cc2)cc1,12.2
8,Cc1ccc(C(=O)CN2C(=O)NC3(CCCCC3C)C2=O)s1 (stereo not drawn),-8.45
9,CCOC(=O)N1CCN(C(=O)C(=O)NN)CC1,25.5
10,O=[N+]([O-])c1ccc(C(O)CNC(=S)Nc2ccccc2)cc1 (stereo not drawn),-11.6
11,COC(=O)[C@H](C)NC(=O)Nc1ccc(C)c(C)c1,17.6
12,COCCn1nnnc1C(c1ccccc1OC)N1CCN(C(=O)c2ccco2)CC1 (stereo not drawn),-16.1
13,COc1cccc(/C=N/Nc2cc(N3CCOCC3)ncn2)c1O,7.93
14,O=C(NCc1ccccc1)c1ccc2c(c1)C(=O)N(Cc1cccnc1)C2=O,-15
15,O=C(N[C@@H](Cc1ccccc1)C(=O)N[C@@H](Cc1ccccc1)C(=O)O)OCc1ccccc1 (Cbz-Phe-Phe-OH),1.13
16,Cc1ccc2c(c1)N(C(=O)CCC(=O)NC1CCN(Cc3ccccc3)CC1)CC(C)O2 (stereo not drawn),-67.1
17,Cc1cc(-c2nnc(SCC(=O)Nc3cccc(Cl)c3)n2N)n[nH]1,-71.9
18,Cc1cc(Nc2ccc(Cl)cc2)n2ncnc2n1,-3.23
19,OC1(c2ccccc2)C/C(=N\n2cnnc2)C=C1c1ccccc1 (stereo not drawn),4.2
20,CCN1CCN(C(=O)CN(C)S(=O)(=O)c2ccc(OC)cc2)CC1,9.43
21,C=CCN1CC(=O)N2Cc3[nH]c4ccccc4c3C[C@H]2C1=O,10.7
22,Cc1cc(/N=C/C=C2\N(C)c3ccccc3C2(C)C)n(CCC#N)n1,-29.8

row,Compound,"hERG current change (%, negative = inhibition) at 10uM [%]"
1,CCOc1ccc2oc(C(=O)OCC(=O)NC(=O)NC)c(C)c2c1,16.3
2,Cc1cccc(C(=O)OCC(=O)NCC2COc3ccccc3O2)c1 (stereo not drawn),2.05
3,O=C(Nc1nnc(-c2cccs2)o1)C1CC1,3.93
4,N#C/C(=C\c1c(F)cccc1Cl)c1nn(-c2ccccc2)c(-n2cccc2)c1C#N,13.6
5,Cc1cc(C)c(S(=O)(=O)c2ccccc2C)c(OCC(C)(C)C)n1,0.171
6,C=C1CCN([C@@H](CC(C)C)C(=O)NCc2ccccc2)S(=O)(=O)c2ccccc21,-9.68
7,Cc1ccc(-n2ncc(Cl)c2C(=O)NC2CC2)cc1,-17.7
8,O=c1c2c(nc3cc(-c4ccccc4)[nH]n13)CCS2,21.6
9,COc1ccc(NC(=O)CCNS(=O)(=O)c2ccc(C)c(C)c2)cc1OC,16.5
10,Cc1nnc(NC(=O)CCS(=O)(=O)Cc2ccccc2)s1,-48.4
11,COc1cc(/C=C/C(=O)OCC(=O)NCCN2C(=O)CSC2=O)ccc1OCC#N,-3.08
12,CCCNC(=S)N1CCC(NC(=O)C23CC4CC(CC(C4)C2)C3)CC1,-0.892
13,CCOC(=O)Nc1ccc2c(c1)N(C(=O)CN(CC)CC)c1ccccc1C=C2.Cl.O,-19.1
14,CCN(c1ccc(NC(=O)c2cccc(S(=O)(=O)N3CCN(C)CC3)c2)cc1)C(C)C,-41.3
15,CC(C)(C)OC(=O)N[C@@H](Cc1ccccc1)c1nnc(S(=O)(=O)Cc2ccccc2)o1,-1.97
16,Cn1c(=O)[nH]c2nncnc2c1=O,-13
17,CC12CCC(=O)N1C(C(=O)Nc1ccc(F)cc1)CS2 (stereo not drawn),12.4
18,CC(=O)c1c(C)oc2ccc(NS(=O)(=O)c3ccc(C)cc3)cc12,13.8
19,O=S1(=O)c2cccc3cccc(c23)N1Cc1ccc(-c2nnco2)cc1,7.2
20,O=C(Nc1c2c(nn1-c1ccc(F)cc1)CS(=O)(=O)C2)c1ccc(S(=O)(=O)N2CCOCC2)cc1,12.1
21,CC(=O)Nc1ccc2c(c1)C(=O)N(c1cccc3ccccc13)C2=O,-9.32
